Assay results: PubChem BioAssay AID652104 (National Center for Advancing Translational Sciences (NCATS), 2013)
About 7,200 (1.8%) of roughly 410,000 compounds were called active. This list was built around the results that the source calls inconclusive (neither active nor inactive); the mix of calls is not that of the screen. Calls follow the shape of the dose curve; as a rule, active = well fitted activation curve with a large enough effect; inconclusive = small, poorly fitted or top-dose-only effect, or another doubt; inactive = no such curve, though single readings can be large or run the other way. No potency is given beside an inconclusive call; the fits are too rough.

Assay: qHTS of TDP-43 Inhibitors; also: nearly all actives have a fitted effect of over 50% in size; as to growth rescue (activation): % of control where 0% means no effect
Conditions: TDP-43 expressing yeast growth rescue, BacTiter-Glo, 24 h; growth rescue (activation): at 46.1 µM (top of the series) unless noted
Summary of the method: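 Cell-based yeast growth screen: TDP-43 expression induced in galactose, inoculum OD600=0.02 after raffinose pregrowth to mid-log. Read-out BacTiter-Glo luminescence at 24 hr, 30 deg C; inhibition of toxicity seen as signal increase.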
Potency is read from the fitted curve at half-maximal effect; tags tell the direction and shape of the fitted curve.

SMILES	Potency	growth rescue (activation)
CC(C)(C)N=Cc1cc(-c2ccccc2)sc1O	inconclusive [activator, single point]	
CC1Cn2cc(C(=O)Nc3cccc(C(F)(F)F)c3)c(=O)c3c(Cl)ccc(c32)O1 (stereo not drawn)	inactive	
Cc1cc(Nc2ncc(Cl)cc2Cl)n[nH]1	inconclusive [activator, single point]	
Cc1ccc(-c2onc(C)c2C)cc1S(=O)(=O)NC1CCCCC1	inconclusive [activator, single point]	
CCC(=O)Nc1cc(ON=C(C)C)cc([N+](=O)[O-])c1	inconclusive [activator, full curve]	
COc1ccc(CNC(=O)C(C(C)C)N2Cc3ccccc3C2=O)cc1 (stereo not drawn)	inconclusive [activator, single point]	
O=[N+]([O-])c1ccc(Sc2nnnn2-c2ccccc2)nc1	inconclusive [activator, single point]	
CC(=O)c1ccc(N2CCN(C(=S)Nc3ccccc3C(F)(F)F)CC2)cc1	inconclusive [activator, partial curve]	
Cc1nnc(-c2cccc(Br)c2)c2cn(-c3ccccc3Cl)nc12	active: 10 µM	
Cc1cc(C)n(CCc2nc(-c3cc4ccccc4o3)cs2)n1	inconclusive [activator, partial curve]	
CN(C)S(=O)(=O)c1cccc(NC(=S)Nc2ccc(Cl)cc2Cl)c1	inconclusive [activator, single point]	
CCc1nnc(NC(=O)CSc2nccn2-c2cc(C)cc(C)c2)s1	inconclusive [activator, partial curve]	
O=C1C(Cc2c[nH]c3ccccc23)NC(=S)N1C1CCCCC1 (stereo not drawn)	inconclusive [activator, partial curve]	
CCNc1c(NC(=O)c2cc(OCC)c(OCC)c(OCC)c2)c(=O)oc2ccccc12	inactive	
O=C(CCO)c1ccc(O)cc1	inactive	
C=C1CCN(C(C(=O)OC)C(C)C)S(=O)(=O)c2ccccc21 (stereo not drawn)	inconclusive [activator, full curve]	
Cc1cc(C)cc(C(=O)Oc2cc(C)[nH]c(=O)c2[N+](=O)[O-])c1	inconclusive [activator, partial curve]	
Cc1cc(C)c(Cn2c(C(O)c3ccccc3)nc3ccccc32)c(C)c1 (stereo not drawn)	inactive	
Cc1ccccc1OC1=NS(=O)(=O)c2ccccc21	inconclusive [activator, single point]	
Cc1cnc(NC(=O)c2c(-c3ccccc3)noc2C)s1	inconclusive [activator, partial curve]	
O=C(CSc1nc2ccccc2n1Cc1ccccc1Cl)NCc1ccccc1	inconclusive [activator, single point]	
O=C1N/C(=N/N=C/c2ccc(F)cc2)SC1c1ccccc1 (stereo not drawn)	inactive	
CCOC(=O)c1[nH]cnc1C(=O)Nc1ccc(F)cc1	inconclusive [activator, partial curve, poor fit]	

SMILES	Potency	growth rescue (activation)
COc1ccc(Nc2ncnc3sc(-c4ccccc4)cc23)cc1OC	inconclusive [activator, full curve]	
CCOC(=O)c1c(NC(=O)COc2ccc(F)cc2)sc2c1CCC(C)C2 (stereo not drawn)	inconclusive [activator, partial curve]	
CCN(C(=S)NC(=O)c1ccco1)c1cccc2ccccc12	inconclusive [activator, partial curve]	
O=C(Nc1cc(Cl)ccc1-n1cncn1)c1cc(F)cc(F)c1	inconclusive [activator, partial curve]	
COc1ccc(C(=O)c2ccccc2CN2C(=O)c3ccccc3C2=O)cc1	inconclusive [activator, single point]	
Cc1sc2ncnc(N3CCC(C(=O)N(C)CC(=O)Nc4ccc(Cl)c(C(F)(F)F)c4)CC3)c2c1C	inconclusive [activator, single point]	
Cc1cn([C@H]2C[C@H](O)[C@@H](CNC(=O)CNC(=O)CN)O2)c(=O)[nH]c1=O	inconclusive [activator, partial curve]	
O=C(CNC(=O)C1CCCCC1)OCc1cc(=O)oc2ccc3ccccc3c12	inactive	
CCOC(=O)C1=CCN(S(=O)(=O)c2cccc(Cl)c2)C1c1cccc(F)c1 (stereo not drawn)	inconclusive [activator, partial curve]	
COc1ccc(CNC(=O)/C=C/c2ccc(OCCCF)cc2)cc1OC	inconclusive [activator, partial curve]	
COc1ccc(NC(=O)CSc2nc3nc(C)c(Cc4ccccc4Cl)c(C)n3n2)cc1OC	inactive	
CC(C)OC(=O)/C(C#N)=C/c1cn(C)c2ccccc12	inactive	
COc1ccc(-c2sc3ccccc3c2C#CCCO)cc1	inconclusive [activator, single point]	
O=C(NC(=S)Nc1ccc(CN2CCOCC2)cc1)c1ccc(-c2cccc(Cl)c2)o1	inconclusive [activator, full curve, poor fit]	
O=C1C=C(c2ccc(C(=O)O)c(Cl)c2)C[C@@H](c2ccc3c(c2)OCO3)C1	inactive	
CC1(C(=O)NS(=O)(=O)c2cccc(F)c2)CCN1C(=O)c1ccccc1CCc1ccccc1 (stereo not drawn)	inconclusive [activator, single point]	
C=C1C(=O)C23C(O)C1CCC2C12CCCC(C)(COC(C)=O)C1C(O)C3(O)OC2 (stereo not drawn)	inconclusive [activator, partial curve]	
CC(C)(C)C(=O)C1=C(O)C(=O)N(c2ccccc2)C1c1ccccc1 (stereo not drawn)	inconclusive [activator, full curve]	
Cc1ccc(/C=N/Nc2ccc(C(=O)O)cc2)s1		inconclusive: -72.6% [activator]
CCOC(=O)N1CCN(C(=O)c2ccc3c(c2)N(Cc2ccc(F)cc2)CCS3)CC1	inconclusive [activator, partial curve]	
Cc1c(C(=O)NCCc2ccc(Cl)cc2)sc2nc3n(c(=O)c12)CCCC3	active: 17.8 µM	
CC(C)c1ccc(NC(=O)COC(=O)[C@@H]2CCCN2C(=O)c2cccs2)cc1	active: 35.5 µM	
COc1ccc2occ(C(=O)c3cccs3)c2c1	inconclusive [activator, partial curve]	

SMILES	Potency	growth rescue (activation)
COc1cc([N+](=O)[O-])cc(/C=N/NC(=O)C(O)(c2ccccc2)c2ccccc2)c1O	inconclusive [activator, single point]	
CCCc1ccc(C(C)NC(=S)NCc2ccc(F)cc2)cc1 (stereo not drawn)	inactive	
CC(C)C1C(=O)N(Cc2cn(CCC3OCCO3)nn2)CCS(=O)(=O)N1Cc1ccc(-c2ccccc2C(F)(F)F)cc1 (stereo not drawn)	active: 35.5 µM	
CCCCc1cc(=O)oc2cc(OS(C)(=O)=O)ccc12	inconclusive [activator, partial curve]	
C=C1C(=O)[C@]23C[C@H]1CCC2[C@@]1(C)C(C[C@@H]3O)[C@](C)(C(=O)OC)CC[C@@H]1O (stereo partly drawn)	active: 3.16 µM	
C=CCn1c(SCC(=O)c2ccc(Cl)cc2)nnc1-c1ccc2c(c1)OCO2	inconclusive [activator, partial curve, poor fit]	
S=C(CSc1ccccc1)Nc1cccc2ccccc12	inconclusive [activator, partial curve]	
S=C(NCc1ccccc1)Nc1ccc2ccccc2c1	inconclusive [activator, single point]	
COc1ccc(C(=O)OCC(N)=O)cc1[N+](=O)[O-]	inactive	
CC(=O)Oc1ccc2c(=O)oc(-c3ccccc3C)nc2c1	active: 14.1 µM	
Cc1ccc(S(=O)(=O)CCC(=O)c2cccc([N+](=O)[O-])c2)cc1	active: 17.8 µM	
CCCCCCSc1ccc([C@H]2N[C@@](C)(C(=O)OC)[C@H]3C(=O)N(C)C(=O)[C@@H]23)cc1	inconclusive [activator, single point]	
CCN(c1cccc(C)c1)S(=O)(=O)c1nnc(NC(=O)c2ccccc2Cl)s1	inactive	
Cc1ccc(C(=O)O/N=C(\N)c2cccc([N+](=O)[O-])c2)cc1	active: 10 µM	
Cc1c(C(=O)N2CCCCC2)oc2ccccc12	inconclusive [activator, single point]	
C[C@@H]1COc2cccc(N3CCSCC3)c2S(=O)(=O)N1	inconclusive [activator, partial curve]	
Cc1cc(C)cc(-n2ncc3c2CCCC3NC(=O)c2csnn2)c1 (stereo not drawn)	inconclusive [activator, partial curve]	
CCCCC(=O)NC(=S)NNC(=O)c1ccc(OC)cc1	inconclusive [activator, full curve, poor fit]	
COc1ccccc1N1CCN(C(=O)CSc2nc3ccccc3nc2Cc2ccccc2)CC1	inconclusive [activator, partial curve, poor fit]	
C[C@@H](c1ccccc1)N1C[C@@H](COCc2ccccc2)Oc2cc(N3CCC[C@H]3C(N)=O)ccc2S1(=O)=O	inactive	
CCOC(=O)N1CCN(c2ccc(S(=O)(=O)N3CCC(C)CC3)cc2[N+](=O)[O-])CC1	active: 22.4 µM	
CN(C)C(=O)c1ccc2c(c1[N+](=O)[O-])C(=O)c1ccccc1C2=O	inconclusive [activator, single point]	
